Data: the supplement of paper PMC10320760
The data scatter; read single values as rough.

B1: Ydj1; a variant is named by its letters at X, in order (parent)
chain: MVKETKFYDILGVPVTATDVEIKKAYRKCALKYHPDKNPSEEAAEKFKEASAAYEILSDPEKRDIYDQFGEDGLSGAGGAGGFPGGGFGFGDDIFSQFFGAGGAQRPRGPQRGKDIKHEISASLEELYKGRTAKLALNKQILCKECEGRGGKKGAVKKCTSCNGQGIKFVTRQMGPMIQRFQTECDVCHGTGDIIDPKDRCKSCNGKKVENERKILEVHVEPGMKDGQRIVFKGEADQAPDVIPGDVVFIVSERPHKSFKRDGDDLVYEAEIDLLTAIAGGEFALEHVSGDWLKVGIVPGEVIAPGMRKVIEGKGMPIPKYGGYGNLIIKFTIKFPENHFTSEENLKKLEEILPPRIVPAIPKKATVDECVLADFDPAKYNRTRASRGGANYDSDEEEQGGEGVQCXXX

Variants of: B1
Test: enrichment factor, frequency at 37 °C / frequency at 25 °C (thermotolerance selection) (ratio); higher = more growth at 37 °C, higher likelihood of farnesylation
Conditions: with Saccharomyces cerevisiae ydj1Δ (yWS304); selective temperature 37 °C; reference temperature 25 °C
Method: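 Pooled library of all 8,000 Ydj1-CXXX C-terminal motif variants (native CASQ replaced by C + three variable residues, one codon per amino acid) expressed from a CEN plasmid in S. cerevisiae ydj1Δ (yWS304). The library was grown in SC-Ura liquid to A600 ~2 (~8 generations) at permissive 25 °C or selective 37 °C. Reads from 8 and 7 replicates were pooled and variants counted by NGS. Enrichment factor = frequency at 37 °C / frequency at 25 °C, with a +1 correction; it reports Ydj1-dependent thermotolerance, used as a read-out of farnesylation by yeast FTase.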

Row | Variant | enrichment factor
1 | GDI | 0.111
2 | GDL | 0.0939
3 | GDH | 0.17
4 | GDE | 0.115
5 | GDK | 0.155
6 | GDD | 0.164
7 | GDF | 0.165
8 | GDM | 0.145
9 | GDG | 0.0837
10 | FDH | 0.281
11 | FDG | 0.434
12 | FDF | 0.645
13 | FDL | 0.224
14 | FDI | 0.521
15 | FDD | 0.199
16 | FDE | 0.173
17 | FDM | 0.349
18 | FDK | 0.0876
19 | YDL | 0.218
20 | YDG | 0.282
21 | YDE | 0.197
22 | YDH | 0.198
23 | YDK | 0.151
24 | YDI | 0.13

Row | Variant | enrichment factor
25 | YDC | 0.218
26 | YDF | 0.303
27 | YDD | 0.178
28 | CDE | 0.207
29 | CDF | 0.306
30 | CDD | 0.201
31 | CDK | 0.182
32 | CDL | 0.216
33 | CDH | 1.93
34 | CDG | 0.156
35 | CDI | 0.504
36 | SDI | 0.125
37 | SDH | 0.262
38 | SDK | 0.124
39 | SDL | 0.128
40 | SDD | 0.199
41 | SDG | 0.165
42 | SDE | 0.132
43 | SDF | 0.211
44 | IDH | 1.07
45 | IDI | 0.169
46 | IDE | 0.161
47 | IDG | 0.146
48 | IDL | 0.107

Row | Variant | enrichment factor
49 | IDF | 0.164
50 | IDD | 0.129
51 | IDK | 0.196
52 | LDF | 0.0991
53 | LDK | 0.165
54 | LDI | 0.15
55 | LDG | 0.129
56 | LDH | 0.876
57 | LDL | 0.157
58 | LDE | 0.127
59 | LDD | 0.156
60 | VDL | 0.185
61 | VDD | 0.246
62 | VDI | 0.223
63 | VDH | 2.15
64 | VDK | 0.196
65 | VDG | 0.248
66 | VDE | 0.0846
67 | VDC | 1.15
68 | VDF | 1.03
69 | ADE | 0.185
70 | ADK | 0.205
71 | ADD | 0.229
72 | ADF | 0.247

Row | Variant | enrichment factor
73 | ADH | 1.43
74 | ADI | 0.231
75 | ADL | 0.249
76 | ADG | 0.117
77 | KDH | 0.725
78 | KDD | 0.122
79 | KDG | 0.224
80 | KDK | 0.1
81 | KDI | 0.162
82 | KDF | 0.149
83 | KDL | 0.157
84 | KDE | 0.152
85 | PDG | 0.201
86 | PDF | 0.324
87 | PDI | 0.173
88 | PDH | 0.37
89 | PDD | 0.179
90 | PDK | 0.292
91 | PDE | 0.24
92 | PDL | 0.118
93 | QDH | 0.387
94 | QDF | 0.136
95 | QDK | 0.161
96 | QDI | 0.115

Row | Variant | enrichment factor
97 | QDE | 0.111
98 | QDG | 0.139
99 | QDD | 0.102
100 | QDL | 0.115
101 | EDF | 0.207
102 | EDK | 0.108
103 | EDI | 0.145
104 | EDE | 0.129
105 | EDD | 0.186
106 | EDL | 0.171
107 | EDG | 0.1
108 | EDM | 0.346
109 | EDH | 0.19
110 | WDD | 0.25
111 | WDF | 1.98
112 | WDG | 1.48
113 | WDH | 0.743
114 | WDC | 0.7
115 | WDE | 0.282
116 | WDI | 0.963
117 | WDK | 0.33
118 | WDL | 1.64
119 | MDD | 0.182
120 | MDI | 0.141

Row | Variant | enrichment factor
121 | MDE | 0.165
122 | MDG | 0.192
123 | MDL | 0.172
124 | MDF | 0.336
125 | MDK | 0.161
126 | MDH | 0.439
127 | HDK | 0.105
128 | HDI | 0.216
129 | HDE | 0.171
130 | HDG | 0.172
131 | HDD | 0.0997
132 | HDL | 0.196
133 | HDH | 0.629
134 | HDF | 0.207
135 | NDH | 0.369
136 | NDE | 0.165
137 | NDK | 0.226
138 | NDL | 0.107
139 | NDF | 0.182
140 | NDD | 0.123
141 | NDG | 0.079
142 | NDI | 0.243
143 | TDG | 0.0884
144 | TDI | 0.189

Row | Variant | enrichment factor
145 | TDF | 0.119
146 | TDE | 0.127
147 | TDL | 0.172
148 | TDH | 0.787
149 | TDD | 0.199
150 | TDK | 0.0897
151 | RDD | 0.163
152 | RDE | 0.0987
153 | RDK | 0.135
154 | RDH | 1.33
155 | RDG | 0.265
156 | RDI | 0.137
157 | RDF | 0.173
158 | RDL | 0.194
159 | DDH | 0.133
160 | DDE | 0.0864
161 | DDF | 0.247
162 | DDI | 0.209
163 | DDG | 0.224
164 | DDL | 0.14
165 | DDC | 0.121
166 | DDK | 0.271
167 | DDD | 0.164
